Laboratory results from the RNAGym collection of RNA variant scans (doi:10.1093/nar/gkz1192).
The source gives no read counts; variants with many changes may rest on few reads.

B1: CPEB3 Ribozyme (parent)
chain: UAACAGGGGGCCACAGCAGAAGCGUUCACGUCGCAGCCCCUGUCAGAUUCUGGUGAAUCUGCGAAUUCUGCUGUAUAUCUC

Variants of: B1
Test: self-cleavage, relative activity (ratio to wild type); higher = more cleavage; in vitro, sequencing
Procedure, shortened: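 Relative activity compares each variant's cleaved/total read fraction with that of the unmutated ribozyme. To get these fractions, barcoded CPEB3 ribozyme libraries from rounds of error-prone PCR were transcribed with T7 RNA polymerase for 5 hours at 37°C and then given 15 min of DNase I treatment before EDTA was added. The RNAs were reverse transcribed with template switching and sequenced on Illumina, and DNA sequencing linked barcodes to variants. A minimum of 5 reads applied, and three batches were averaged.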

Variant	self-cleavage
A5G C11G A21G U26G U60C	0.09
A5G A28G U78C	0.44
A5G A28G U49C A57U	0.13
A5G C14U A15U G52U	0.63
A5G A45G U48C U51C	0.43
A5G A57G U80A	0.9
A5G G7C A18G U25C U26A A64G	0.08
A5G C44U U60C	0.71
A5G A35G G55A	0.77
A5G A45G A56G	0.07
A5G G6C A13G G16A A18U A56C U80C	0.28
A5G G6U U49C U51A A57G G70A	0.07
A5G A28U A64U U67C U69C	0.31
A5G A35U U48C	0.62
A5G C34A G61C U72A	0.06
A5G G8A G10A A57G U66C U72A U78C	0.04
A5G G7A G8U G19C U26C	0.05
A5G A47G U72A A75G U78A	0.68
A5G C40U U60A U69C	0.13
A5G G7A C23U A35U	0.07
A5G A56G U60A U78C	0.24
A5G G7C G63C	0.23
A5G G8A A15G U25C U31A U80C	0.07
A5G A45G U80A	0.95

Variant	self-cleavage
A5G A35U U41A A47G U51C G61A U72C	0.12
A5G C17U U25C A28G U41C	0.42
A5G A28U U41C U51A	0.27
A5G G7C A28U U69C	0.23
A5G G6C U25C G30C	0.4
A5G C44A U80C	0.55
A5G G7U C12U A18U U67C	0.06
A5G G7C G19C A45G U60C	0.07
A5G C14G U41C U51C U54A U74C	0.32
A5G A35U A45C U78C	0.28
A5G G6A A45U U51A	0.08
A5G G6C A20G U78C	0.61
A5G C23A U72A G73U	0.08
A5G G6A C14U A56G A75U	0.42
A5G C29G A35U U41C	0.3
A5G C39A U67A U80C	0.22
A5G C12U A18G A21U U78C	0.09
A5G C12G U31A U41C G73C U80C	0.33
A5G C17U A35U U80C	0.39
A5G G8A G24A	0.08
A5G C14A A21G U49C U69C U72A U74A	0.19
A5G C23A A47G	0.69
A5G C14U A18G A20G U26C U41C C81A	0.16
A5G C17U U25C A28G U72A	0.09

Variant	self-cleavage
A5G C39A A57G A75U	0.35
A5G C12A C23U A28G	0.06
A5G A56U U60A U69C U78A	0.12
A5G A45U U60A U67A	0.18
A5G A28G U48C U76A A77U	0.26
A5G A47G U74A	1.18
A5G C17A U69C	0.1
A5G C12U U74A	1.11
A5G G8A G36A U49C C68U	0.05
A5G A28U U31C U49G U66C	0.05
A5G A28G U69C	0.08
A5G C14U U60A	0.56
A5G A35G U60C A64G U74A A75G	0.36
A5G A45G A56G U58A	0.5
A5G G8A U80C	0.26
A5G A45G U49C U69G	0.07
A5G C38A U60G U80C	0.07
A5G A77G U78A	0.74
A5G G6A A21G A35G G63C U78C	0.06
A5G C23G A47G A64G U66C C79A	0.06
A5G C14U U41C U54C	0.69
A5G C44U U58A U78C U80C	0.15
A5G C14A A15G A56G	0.26
A5G C38U G70C	0.2

Variant	self-cleavage
A5G A35G U49G U60A U66A U72C	0.2
A5G A28G U49C A56G	0.43
A5G A28G U69C U72C	0.17
A5G C29G U74G	0.14
A5G C12A C40A A45U G70C U74C	0.13
A5G C27A C37G G42A A77G	0.22
A5G G6U U60C	0.4
A5G A47G U54C G63U	0.4
A5G C12U A45G U69C	0.42
A5G G8A C11G C27G U67C U76C A77G	0.04
A5G A56G G70A U80C	0.32
A5G C38U C62U U69C U76A	0.44
A5G G6A A28U	0.33
A5G G8A A45G	0.29
A5G G7A A13G	0.58
A5G A45G U51G U69C	0.26
A5G G6A A28G G53A	0.08
A5G G7A A20U A28C U43C A56G	0.07
A5G A45U A77G C81U	0
A5G C14G U43C U60C U66C	0.31
A5G A35C U48C A64G U80G	0.17
A5G G8U A35G U43C A56G	0.35
A5G G8A A13G U26C U74C	0.63
A5G C29A C34U U48G U54C U67A	0.17

Variant	self-cleavage
A5G C40U U43A	0.25
A5G C23U U26C A65G	0.45
A5G A35U C37A U43C A47G A56G	0.32
A5G G6C A18U G24A A35G A75G U78G	0.03
A5G C59U U60A U66C	0.23
A5G C14U C29U A56G U72G	0.09
A5G C40A A64G U69C	0.21
A5G G8A U49A G53A	0.08
A5G G8A U41C U48C U51G U60A U69A	0.19
A5G C17A G30A C79A	0.69
A5G G7U U25C U69A A75U	0.06
A5G C34U U69C	0.28
A5G C17U C34U A47U U51A A64G U67C	0.08
A5G A28U U49C U78C	0.29
A5G C11A U43C A64U	0.1
A5G A45U U58C	0.26
A5G G6A U60C U74A	0.41
A5G C12U U25C U54A	0.32
A5G C11G A18G A28U	0.38
A5G A45G A47U U58A U60C U80C	0.5
A5G C12U G33A U43C A45U A56G	0.06
A5G C17U U54A G63U A75U	0.81
A5G G6U U80C	0.2
A5G C14U U43C U58C	0.11

Variant	self-cleavage
A5G C38U A47C U49A U60C	0.09
A5G G6A A18G A35G A45G A75U	0.03
A5G G7U A15U U48A C81U	0.06
A5G C14A A15G U60C A77U	0.13
A5G C11A A15G U25C A56G	0.07
A5G A35U U49C U80A	0.2
A5G A65G A75U U78C	0.19
A5G A45C U67A U72G	0.08
A5G A64G C68G U78A	0.13
A5G G8A A13C A28G U72C	0.08
A5G A28U A56G	0.23
A5G C11A C23U A56G	0.06
A5G C38G U43C U80A	0.29
A5G G8A A18U U72A	0.07
A5G C34U C38U G73U	0.21
A5G G7U U25C U58A U72C	0.24
A5G G8A A28G U48C A56G U60A U69C	0.08
A5G C12A A13G U26G	0.32
A5G G6A A13U A15C A56G U60G U78A	0.05
A5G C38A U43C U51C A65G U69C U76G	0.19
A5G C11A A57U	0.24
A5G G8U A15U A18G A21G C23A U69A	0.13
A5G C39G C59G	0.28
A5G C12U A15C G30A A57G U78C	0.07

Variant	self-cleavage
A5G G7U A35G A56U	0.13
A5G A35C A57U	0.35
A5G C27U C40U U41C U66C	0.11
A5G G7A A18G A35G U49A C68U	0.06
A5G A45G U60C	0.63
A5G G6A U69A	0.09
A5G C14U U25G A35U	0.11
A5G G6A U49C A64U A77U	0.05
A5G A28G U58C C79A	0.18
A5G G6C A21G U60C U78C	0.09
A5G G8A G19U A47G	0.07
A5G C39U U74C	0.7
A5G A47G U60A	0.32
A5G C29G U41C U43C	0.19
A5G A35U U49A A56G U66A	0
A5G A28G U58C	0.52
A5G C29U U80A	0.62
A5G G8A A15U U31C U54A A56C U74C	0.08
A5G G6A C23U	0.07
A5G G8A A47G U74C	0.55
A5G G7A U25C U26C G33A A65U	0.04
A5G A57U A64G A65G	0.19
A5G A45G A56G A64G U78C	0.54
